Laboratory results published in PubChem BioAssay AID588855 (National Center for Advancing Translational Sciences (NCATS), 2011).
The whole screen tested about 410,000 compounds, of which about 5,000 (1.2%) were called active. The shares of active, inactive and inconclusive entries below differ from those in the screen. Calls follow the shape of the dose curve; as a rule, active = well fitted inhibition curve with a large enough effect; inconclusive = small, poorly fitted or top-dose-only effect; inactive = no such curve, though single readings can be large or run the other way. Potencies of inconclusive entries are doubtful fits and often do not repeat.

Assay: qHTS for Inhibitors of TGF-b; also: nearly all actives have a fitted effect of over 65% in size
Settings: HepG2 CAGA-GFP TGF-b/SMAD3 reporter, GFP fluorescence, 18 h, TGF-beta stimulated, 500 pg/mL final; series mostly up to 46.1 µM
Procedure, shortened: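 Cell-based qHTS in HEPG2 carrying a CAGA-GFP Smad reporter; compounds added before 500 pg/mL final TGF-beta, 18 h incubation at 37 degrees C, GFP fluorescence quantified per cell by imaging cytometry.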
Potency is read from the fitted curve at half-maximal effect; tags tell the direction and shape of the fitted curve.

Structure (SMILES)	Potency
O=[n+]1cc(-c2ccc(Cl)cc2)n([O-])c2c1CCCCC2	inconclusive: 0.282 µM [inhibitor, full curve, poor fit]
CCOC(=O)c1cc(-c2ccccc2)sc1NC(=O)CC(C)C	inactive
CCC(C)NC(=O)c1c(N)n(/N=C/c2ccccn2)c2nc3ccccc3nc12 (stereo not drawn)	inactive
Cc1cc2c(cc1C)-n1c(-c3ccccc3)c3c(=O)n(C)c(=O)n(C)c3c1C(c1ccco1)N2 (stereo not drawn)	inactive
Nc1c(N(Cc2ccccc2)C(=O)COc2ccc(F)cc2)c(=O)[nH]c(=O)n1Cc1ccccc1	inconclusive: 35.5 µM [inhibitor, single point]
S=c1[nH]nc(-c2cccs2)n1/N=C/c1cn(-c2ccccc2)nc1-c1ccccc1	inconclusive: 22.4 µM [inhibitor, single point]
C[C@@H]1CN([C@H](C)CO)C(=O)c2c(c3ccccc3n2C)-c2ccccc2CO[C@H]1CN(C)C(=O)CCC(F)(F)F	inactive
COc1ccccc1CNC(=O)Nc1nc(C(N)Cc2ccc(Cl)cc2)cs1 (stereo not drawn)	inconclusive: 35.5 µM [inhibitor, single point]
CCN(CC(=O)Nc1ccc(NC(C)=O)cc1)C(=O)/C=C/c1ccco1	inconclusive: 1.26 µM [inhibitor, full curve, poor fit]
CC(OC(=O)c1cccs1)C(=O)NC1CCCCC1C (stereo not drawn)	inactive
O=C(CN1CCCCCC1)Nc1ccc(Cl)cn1	inactive
CC(=O)N/N=C/c1ccc(OCCOc2ccc(Br)cc2)cc1	inconclusive: 35.5 µM [inhibitor, single point]
OCc1nnn(-c2ccccc2)c1CO	inconclusive: 14.1 µM [inhibitor, single point]
Cc1ccc2cc3cc(C(=O)NC4CCCCC4)oc3nc2c1	inactive
COc1ccc(OC)c(CN2CCCC(CO)C2)c1 (stereo not drawn)	inconclusive: 0.794 µM [inhibitor, partial curve]
Cc1ccnc(NC(=O)CN2C(=O)NC(C)(c3ccc4ccccc4c3)C2=O)c1 (stereo not drawn)	inconclusive: 35.5 µM [inhibitor, single point]
O=C(NCC(c1cccs1)S(=O)(=O)c1cccs1)c1ccc(C(F)(F)F)cc1 (stereo not drawn)	inconclusive: 7.94 µM [inhibitor, partial curve]
CC(NC(=O)c1ccco1)C(=O)N(C)Cc1ccc(C(F)(F)F)cc1 (stereo not drawn)	inactive
CCC[C@@H]1C=C(C(=O)OCC)[C@H](c2ccccc2)N1S(=O)(=O)c1ccc(C)cc1	inconclusive: 11.2 µM [inhibitor, partial curve, poor fit]
Cc1ccc(-n2ncc3c(N(CCO)Cc4ccccc4)ncnc32)cc1	inconclusive: 35.5 µM [inhibitor, single point]
O=C(NNC(=O)C1CCN(S(=O)(=O)c2ccc(Cl)cc2)CC1)c1ccccc1O	inconclusive: 28.2 µM [inhibitor, single point]
CCOC(=O)N1CCN(/[N+]([O-])=N/Oc2ccc([N+](=O)[O-])cc2[N+](=O)[O-])CC1	inconclusive: 2 µM [inhibitor, full curve, poor fit]

Structure (SMILES)	Potency
Cn1nnnc1SCCNCc1ccccc1OCc1ccccc1	inconclusive: 0.112 µM [inhibitor, full curve, poor fit]
C/C=C/c1cc(OC)c2c(c1)[C@H](C)[C@@H](c1ccc(O)c(OC)c1)O2	inconclusive: 35.5 µM [inhibitor, single point]
CCOCCCNC(=O)CN1C(=O)c2c(c3ccccc3n2C)C1c1ccc(OC)cc1 (stereo not drawn)	inactive
CCOc1ccc(CSCCNC(=S)Nc2ccc(OC)cc2)cc1	inconclusive: 35.5 µM [inhibitor, single point]
CCN(c1ccccc1)S(=O)(=O)c1ccc(NCC2COc3ccccc3O2)nc1 (stereo not drawn)	inconclusive: 14.1 µM [inhibitor, partial curve, poor fit]
Cc1ccc(S(=O)(=O)N2CCC(=O)N(C(COCc3cccc(Cl)c3)C(C)C)CC2)cc1 (stereo not drawn)	inconclusive: 28.2 µM [inhibitor, single point]
Cc1cccc(NS(=O)(=O)c2cccc(C(=O)N3CCCCCCC3)c2)c1	inconclusive: 25.1 µM [inhibitor, single point]
COc1cccc(NC(=O)NC(=O)c2c(C)cc(Cl)nc2Cl)c1	inconclusive: 35.5 µM [inhibitor, single point]
COc1ccc(/C(C)=N/NC(=O)CNC(=O)c2ccncc2)c(OC)c1	inactive
Cc1ccc(CNC(=O)Cn2c(=O)n(-c3ccccc3)c(=O)c3c2c2cc(C)ccc2n3C)cc1	inconclusive: 14.1 µM [inhibitor, partial curve, poor fit]
CC(/C=C/c1ccc(C)o1)=C\C(=O)O	inactive
Cn1cc(/C=C/c2ccnc3ccccc23)c2ccccc21	inconclusive: 35.5 µM [inhibitor, single point]
Cc1cccc(NC(=S)NCCc2c[nH]c3ccccc23)c1	inactive
CN(Cc1ccccc1)C(=O)c1cc2c(s1)-c1ccc(Cl)cc1SC2	inconclusive: 31.6 µM [inhibitor, single point]
O=C(Nc1cc(Cl)ccc1N1CCOCC1)c1ccc2c(c1)OCCO2	inactive
O=C(O)CCc1ccc(-c2ccccc2)n1-c1cccc(Br)c1	inconclusive: 22.4 µM [inhibitor, single point]
Cc1ccc(S(=O)(=O)N[C@@H](Cc2ccccc2)C(=O)CCl)cc1	inconclusive: 35.5 µM [inhibitor, single point]
CC(C)c1nc(SCC(=O)Nc2nccs2)c2ccccc2n1	inconclusive: 5.01 µM [inhibitor, partial curve, poor fit]
O=C1c2ccccc2NC(c2ccc(-c3cccc(Cl)c3)o2)N1O (stereo not drawn)	inconclusive: 11.2 µM [inhibitor, single point]
COc1cc(/C=C/c2nc(C#N)c(NC(C)c3ccccc3)o2)cc(OC)c1OC (stereo not drawn)	inconclusive: 0.112 µM [inhibitor, full curve, poor fit]
Cc1c(C=O)c(C=O)c(C)n1Cc1ccccc1	inactive
